This is an account of results in the supplement of paper PMC9446081.

Structures are written as SMILES. The campaign covered roughly 39,000 compounds. About 220 (0.56%) showed activity. The list shows a part of the results.
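Further: static incubation at 37 °C against the wild-type strain, values averaged over two biological replicates.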

The test system of the assay is Escherichia coli K-12 BW25113. Put plainly: relative growth (OD600 normalised to plate interquartile mean) (fraction); higher = less growth inhibition, active = 0.2 or less. To be noted: 50 µM; LB; incubation time: overnight (16-24 h).
With `C[C@H](CO)N1C[C@H](C)[C@H](CN(C)S(=O)(=O)c2cccs2)Oc2ncc(Br)cc2C1=O`, the relative growth was inactive: 0.898.
`C[C@@H]1CN([C@H](C)CO)C(=O)c2cc(NS(=O)(=O)c3ccc(F)cc3)ccc2O[C@@H](C)CCCCO[C@@H]1CN(C)CC1CCCCC1`: the relative growth is inactive: 0.955.
Take `COc1ccc([Si](C)(C)[C@@H]2[C@@H](CCO)O[C@]3(C(=O)N(Cc4ccccc4)c4ccc(N5C(=O)c6ccccc6Oc6ccccc65)cc43)[C@H]2C)cc1`: the relative growth is inactive: 1.02.
`C[C@H]1CN([C@@H](C)CO)C(=O)Cc2cc(NS(=O)(=O)c3ccccc3)ccc2O[C@H]1CN(C)Cc1ccncc1`: the relative growth is inactive: 0.971.
The figure for `CC(C)OC(=O)[C@H](C)N[P@](=O)(OC[C@H]1O[C@@H](n2ccc(=O)[nH]c2=O)[C@@](C)(O)[C@@H]1O)Oc1ccccc1` is inactive: 0.961; for `C[C@H](O)C#Cc1ccc2c(c1)O[C@@H](CN(C)C(=O)Cc1ccccn1)[C@H](C)CN([C@@H](C)CO)S2(=O)=O` it is inactive: 0.984.
Take `C[C@@H]1CN([C@@H](C)CO)C(=O)c2cc(NC(=O)c3ccccc3)ccc2O[C@@H](C)CCCCO[C@@H]1CN(C)CC1CCCCC1`: the relative growth was inactive: 0.979.
As to `CC(=O)N1[C@H](CO)[C@@H](c2ccccc2)[C@H]1CNC(=O)CN1CCOCC1`, the relative growth was inactive: 1.02.
The figure for `C[C@H](CO)N1C[C@H](C)[C@H](CN(C)C(=O)Nc2cccc3ccccc23)Oc2ccc(NC(=O)Cn3cnnn3)cc2C1=O` is inactive: 1.01.
Take `NC(Cc1cc(I)c(O)c(I)c1)C(=O)O.O.O` (stereo not drawn): the relative growth is inactive: 0.929.
In the case of `COc1ccc(NC(=O)N(C)C[C@@H]2Oc3ccc(NS(=O)(=O)c4c(C)noc4C)cc3CC(=O)N([C@@H](C)CO)C[C@H]2C)cc1`, the relative growth is inactive: 0.993.
The figure for `CS(=O)(=O)N1Cc2cncn2C[C@H](COCC(=O)N2CCCC2)C1` is inactive: 0.987; for `C[C@H](CO)N1C[C@H](C)[C@H](CN(C)Cc2ccc(Cl)c(Cl)c2)Oc2ccc(NS(=O)(=O)c3cccs3)cc2CC1=O` it is inactive: 1.01.
For the compound `O=C(CN1CCOCC1)NCC[C@@H]1CC[C@H](NS(=O)(=O)c2ccc(Cl)cc2)[C@@H](CO)O1`, the relative growth is inactive: 0.981.
On to `C[C@H]1CN([C@@H](C)CO)C(=O)CCCn2nncc2CO[C@@H]1CN(C)S(=O)(=O)c1cccc(C#N)c1`, for which the relative growth is inactive: 1.01.
For `C[C@@H]1ON(c2ccc(I)cc2)[C@H](c2ccc(OC(=O)OC(C)(C)C)cc2)[C@H]1C(=O)N1C(=O)OC[C@H]1Cc1ccccc1`, the relative growth was inactive: 1.01.
The value for `C[C@@H]1CCCCO[C@H](CN(C)C(=O)NC2CCCCC2)[C@H](C)CN([C@H](C)CO)C(=O)c2cc(NS(=O)(=O)c3cccs3)ccc2O1` was inactive: 1.02; that for `C[C@@H]1CCCCO[C@H](CN(C)S(=O)(=O)c2ccc(Cl)cc2)[C@@H](C)CN([C@H](C)CO)C(=O)c2cc(NS(=O)(=O)c3ccc(F)cc3)ccc2O1` was inactive: 1.02; that for `C[C@@H]1CN([C@@H](C)CO)C(=O)c2cccc(NS(=O)(=O)c3ccccc3)c2O[C@H]1CN(C)Cc1ccncc1` was inactive: 0.995.
For the compound `Cc1noc(C)c1S(=O)(=O)N(C)C[C@H]1Oc2ccc(NS(=O)(=O)c3ccc(Cl)cc3)cc2CC(=O)N([C@H](C)CO)C[C@@H]1C`, the relative growth is inactive: 0.991.
The value for `Cc1noc(C)c1NC(=O)N(C)C[C@H]1OCCCC[C@@H](C)Oc2ccc(NS(=O)(=O)c3ccc(Cl)cc3)cc2C(=O)N([C@@H](C)CO)C[C@H]1C` was inactive: 1.
In the case of `CC(C)NC(=O)N(C)C[C@H]1Oc2ccc(NS(=O)(=O)c3ccc(F)cc3)cc2CC(=O)N([C@H](C)CO)C[C@H]1C`, the relative growth was inactive: 0.979.
For the compound `COc1ccc(S(=O)(=O)Nc2ccc3c(c2)CC(=O)N([C@H](C)CO)C[C@H](C)[C@@H](CN(C)C(=O)Nc2c(C)noc2C)O3)cc1`, the relative growth was inactive: 1.01.
The value for `CN1N=C2CCN(C(=O)[C@@H](COCc3ccccc3)NC(=O)C(C)(C)N)C[C@@]2(Cc2ccccc2)C1=O` was inactive: 1.01.
In the case of `C[C@@H]1CN([C@H](C)CO)C(=O)c2cccc(NC(=O)C3CC3)c2O[C@H]1CN(C)Cc1ccc(Oc2ccccc2)cc1`, the relative growth was inactive: 0.983.
The figure for `C[C@@H]1CN([C@H](C)CO)C(=O)Cc2cc(NC(=O)Nc3ccc4c(c3)OCO4)ccc2O[C@@H]1CN(C)Cc1ccc(Oc2ccccc2)cc1` is inactive: 0.987; for `C[C@@H]1CCCCO[C@@H](CN(C)C(=O)Nc2ccc(F)cc2)[C@H](C)CN([C@@H](C)CO)C(=O)c2cc(NC(=O)Nc3ccc(C(F)(F)F)cc3)ccc2O1` it is inactive: 1.03; for `Cn1c(=O)cc(N2CCC[C@@H](N)C2)n(Cc2cc(F)ccc2C#N)c1=O` it is inactive: 0.979.
In the case of `C[C@@H]1CN([C@@H](C)CO)S(=O)(=O)c2ccc(C#CCN(C)C)cc2O[C@H]1CN(C)Cc1ccc(F)cc1`, the relative growth was inactive: 1.01.
Turning to `N#Cc1ncoc1N1CCC(C(N)=O)CC1`, the relative growth was inactive: 0.869.
Take `C[C@@H]1CN([C@@H](C)CO)C(=O)Cc2cc(NS(=O)(=O)c3ccc(F)cc3)ccc2O[C@@H]1CN(C)Cc1ccc(-c2ccccc2)cc1`: the relative growth is inactive: 1.01.
Regarding `O=C1CNC(=S)N1c1ccccc1`, the relative growth is inactive: 0.968.
For the compound `CCCN(C)C[C@H]1OCCCC[C@H](C)Oc2ccc(NS(C)(=O)=O)cc2C(=O)N([C@H](C)CO)C[C@H]1C`, the relative growth was inactive: 0.99.
Take `C[C@H]1COC(=O)[C@H](Cc2ccc(F)cc2)CC=CC[C@@H](CC(=O)N[C@H](CO)Cc2ccccc2)C(=O)N1`: the relative growth is inactive: 1.01.
The value for `COc1cccc(NC(=O)Nc2ccc3c(c2)C(=O)N(C)C[C@@H](OC)[C@H](C)CN(CCC(F)(F)F)[C@H](C)CO3)c1` was inactive: 0.987.
As for `COc1ccc(S(=O)(=O)Nc2ccc3c(c2)C(=O)N([C@H](C)CO)C[C@H](C)[C@@H](CN(C)S(=O)(=O)c2cn(C)cn2)OCCCC[C@@H](C)O3)cc1`, the relative growth is inactive: 0.998.
As for `C[C@@H]1CN([C@H](C)CO)C(=O)CCCn2nncc2CO[C@H]1CN(C)C(=O)Nc1ccc(N2CCN(C)CC2)cc1`, the relative growth was inactive: 0.962.
Take `Cc1noc(C)c1S(=O)(=O)Nc1ccc2c(c1)C(=O)N([C@H](C)CO)C[C@H](C)[C@H](CN(C)CC1CCCCC1)OCCCC[C@H](C)O2`: the relative growth is inactive: 0.983.
`COc1cccc(S(=O)(=O)N(C)C[C@@H]2Oc3ncc(-c4ccc(F)cc4)cc3C(=O)N([C@H](C)CO)C[C@@H]2C)c1`: the relative growth was inactive: 1.02.
For `COc1ccccc1NC(=O)N(C)C[C@@H]1Oc2ncc(Br)cc2C(=O)N([C@@H](C)CO)C[C@@H]1C`, the relative growth was inactive: 1.01.
The value for `CO[C@@H]1CN(C)C(=O)c2cc(NS(C)(=O)=O)ccc2OC[C@H](C)N(C(=O)c2ccc3c(c2)OCO3)C[C@H]1C` was inactive: 0.975; that for `C[C@H]1CN([C@@H](C)CO)C(=O)c2ccccc2-c2ccccc2CO[C@@H]1CN(C)C(=O)Nc1cccc(F)c1` was inactive: 1.02.
For the compound `Cc1noc(C)c1NC(=O)N(C)C[C@@H]1Oc2ccc(NC(=O)Cn3cnnn3)cc2CC(=O)N([C@@H](C)CO)C[C@H]1C`, the relative growth was inactive: 0.944.
On to `C[C@@H]1CN([C@@H](C)CO)S(=O)(=O)c2ccc(Br)cc2O[C@@H]1CN(C)C(=O)c1ccc(F)cc1`, for which the relative growth is inactive: 1.01.
As to `Cc1noc(C)c1NC(=O)N(C)C[C@H]1OCCCC[C@@H](C)Oc2ccc(NC(=O)NC3CCCCC3)cc2C(=O)N([C@H](C)CO)C[C@@H]1C`, the relative growth was inactive: 0.981.
Take `C[C@@H]1CN([C@H](C)CO)C(=O)Cc2cc(NC(=O)Nc3ccc(F)cc3)ccc2O[C@@H]1CN(C)C(=O)Nc1ccc(C(F)(F)F)cc1`: the relative growth is inactive: 0.993.
As for `COc1ccc2c3c([nH]c2c1)[C@H](CO)N(C[C@]13CN(Cc2nccs2)C1)S(=O)(=O)c1ccc(cc1)C`, the relative growth was inactive: 1.03.
With `C[C@H]1CCCCO[C@@H](CN(C)C(=O)Nc2ccc(C(F)(F)F)cc2)[C@@H](C)CN([C@@H](C)CO)C(=O)c2cc(NS(=O)(=O)c3ccc(Cl)cc3)ccc2O1`, the relative growth is inactive: 1.
Consider `Cc1noc(C)c1S(=O)(=O)N(C)C[C@H]1Oc2ccc(NS(C)(=O)=O)cc2C(=O)N([C@H](C)CO)C[C@@H]1C`, for which the relative growth is inactive: 1.
In the case of `C[C@H]1O[C@@H](OC[C@H]2O[C@@H](OC[C@]3(C)[C@H]4CC[C@@]5(C)[C@H](CC[C@H]6C7=CC(C)(C)CC[C@]7(C(=O)O)CC[C@@]65C)[C@@]4(C)CC[C@@H]3O)[C@@H](O)[C@@H](O)[C@@H]2O)[C@@H](O)[C@@H](O)[C@@H]1O`, the relative growth is inactive: 0.98.
Regarding `CC(=C/C(=O)O)/C=C/c1ccccc1`, the relative growth is inactive: 0.985.
The figure for `COc1ccc(CN(C)C[C@@H]2Oc3ccc(NS(=O)(=O)c4cn(C)cn4)cc3C(=O)N([C@H](C)CO)C[C@H]2C)cc1` is inactive: 0.986; for `CNC[C@H]1Oc2cc(C#CC(C)(C)O)ccc2S(=O)(=O)N([C@@H](C)CO)C[C@@H]1C` it is inactive: 1; for `COc1ccc(NC(=O)Nc2ccc3c(c2)C(=O)N([C@@H](C)CO)C[C@H](C)[C@@H](CN(C)Cc2ccc(C(=O)O)cc2)OCCCC[C@@H](C)O3)cc1` it is inactive: 0.96.
The figure for `COC(=O)c1cc(S(=O)(=O)N2CCOCC2)cn1C` is inactive: 0.978; for `C[C@@H]1CN([C@@H](C)CO)S(=O)(=O)c2ccc(Br)cc2O[C@H]1CN(C)C(=O)C1CCOCC1` it is inactive: 0.976.
As for `CNC(=N)NCCC[C@H](N)C(=O)O`, the relative growth is inactive: 0.987.
Regarding `C/C(=C\CC[C@@H](C)[C@H]1C[C@@H](O)[C@@]2(C)[C@H]3CC[C@H]4C(C)(C)[C@@H](O[C@@H]5O[C@@H](CO[C@H]6O[C@@H](CO)[C@@H](O)[C@@H](O)[C@@H]6O)[C@@H](O)[C@@H](O)[C@@H]5O)CC[C@@]45C[C@@]35C[C@@H](O)[C@]12C)C(=O)O[C@H]1O[C@@H](CO)[C@@H](O)[C@@H]1O`, the relative growth was inactive: 0.993.
